Measurements as given in the RNAGym collection of RNA variant scans (doi:10.1093/nar/gkz1192).
The source gives no read counts; variants with many changes may rest on few reads.

B1: CPEB3 Ribozyme (parent)
chain: UAACAGGGGGCCACAGCAGAAGCGUUCACGUCGCAGCCCCUGUCAGAUUCUGGUGAAUCUGCGAAUUCUGCUGUAUAUCUC

Variants of: B1
Test: self-cleavage, relative activity (ratio to wild type); higher = more cleavage; in vitro, sequencing
Outline: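 Relative activity was defined as the cleaved/total read fraction for a variant divided by the same fraction for the unmutated ribozyme. CPEB3 self-cleaving ribozyme libraries were made by rounds of error-prone PCR, barcoded, and transcribed in vitro with T7 RNA polymerase for 5 hours at 37°C, and cleavage ran through transcription plus a 15 min DNase I step before EDTA. Illumina sequencing of template-switched reverse transcripts gave the reads, and DNA sequencing mapped the barcodes. Averages come from three batches, using variants with at least 5 reads.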

| Variant | self-cleavage |
| --- | --- |
| C12U U25C U78C | 0.16 |
| C12U U54C U66C | 0.67 |
| A13G A64G A75U | 0.39 |
| A13C A20G A28U U54A | 0.29 |
| A13C C39G A45U U58C U66A | 0.13 |
| C12U U31C A35G U48C A65C U72A | 0.12 |
| C12U A18G G24A U48C A65U | 0.03 |
| A13G A20G U51A | 0.63 |
| C12U A75G U80C | 1.29 |
| C12A U41A A45G A56G | 0.09 |
| A13C A21G U26C A56G U60A | 0.2 |
| A13G A18G U25C U60C C71A U72C | 0.2 |
| A13G A21G U25C C40U U54A C79U | 0.03 |
| A13G A15G A56G U60C C71U U80C | 0.02 |
| C12U U31A U41A U67C C71U | 0.06 |
| A13G A18U A35G C71U | 0.08 |
| A13G A28G C32A U54A | 0.12 |
| A13G A18G U31C U66A | 0.34 |
| A13G A15G C38U A75U | 0.16 |
| A13G A20U U41C A56U | 0.12 |
| A13G A57G A65G U69A | 0.11 |
| A13G A21U C27U C29U U48C | 0.08 |
| C12U C37G U43C U51G U67C C79U | 0.07 |
| A13G A56G A65G | 0.15 |

| Variant | self-cleavage |
| --- | --- |
| C12U U25A U69C | 0.1 |
| C12U U41C A75G | 1.23 |
| A13G C38A U41A U51C | 0.13 |
| A13G A15G U26A U69C | 0.16 |
| A13C A15G U25C A45G U60A | 0.35 |
| A13G C32U U74A A77G | 0.08 |
| C12U A35U A45U U48A | 0.17 |
| C12A C39A A56G U80C | 0.37 |
| A13G A18G U26C U78C | 0.34 |
| C12A U25C U31C G61A | 0.13 |
| A13C A35U G36U U51C A75G | 0.08 |
| A13G A35U A47G A77G | 0.69 |
| A13C G22A U25C U26A U60A C71G | 0.06 |
| A13G A45U A56G U69A | 0.09 |
| A13C A56G U69C U78C | 0.36 |
| A13G C34U U51C U54A | 0.48 |
| A13C U26C C39A | 0.19 |
| A13C U26G U69C | 0.06 |
| A13G A15U U43C U48C | 0.39 |
| A13C U48A U78A | 0.33 |
| A13G A28C U48C U72A | 0.1 |
| A13G A28U U74C | 0.37 |
| A13G C37A U43C | 0.16 |
| C12A U51A U67C | 0.22 |

| Variant | self-cleavage |
| --- | --- |
| C12G A35U U41C G53C A57C | 0.29 |
| C12U C14A U43A A45G U67C | 0.12 |
| A13G A28G A45U A57G | 0.08 |
| A13C A21G C38U U58C U74C U80C | 0.08 |
| A13G A21G U43C | 0.25 |
| A13G A18G U58C A75G | 0.21 |
| A13C A15G A64G U80C | 0.57 |
| A13G C37G A56U U74C U80C | 0.09 |
| C12U C44A U60C | 0.16 |
| A13G A20U A35G A47U A57G | 0.18 |
| C12U C50A U74A | 1.29 |
| C12G A13U U60A A64G | 0.31 |
| A13C A21G A64U A65G | 0.08 |
| A13C A45G C50U U78C | 0.54 |
| A13G A18C A20G C34U A65G | 0.04 |
| A13G A18U A45U | 0.23 |
| A13G C38U A57G U60C A64U U72C | 0.07 |
| A13G C27U U66C | 0.25 |
| C12U A28G U69C | 0.5 |
| C12U U25A A56G | 0.06 |
| A13G A21G U76C | 0.53 |
| C12U A28G A35U A64G U76C U80C | 0.17 |
| C12U A18U U41C U66G U78C U80C | 0.22 |
| C12U A15G G30A | 0.18 |

| Variant | self-cleavage |
| --- | --- |
| A13G C32U C34U U67C | 0.11 |
| C12U A18G G46A U60C | 0.12 |
| A13C A20G U51A A64G U72A | 0.15 |
| A13G A56G G63C U72A | 0.26 |
| A13G A18U U54C U67C U69C | 0.2 |
| A13C G24A U60A | 0.37 |
| A13C G52U U58C | 0.41 |
| A13G A21G A35U | 0.17 |
| C12U A15G A18C G46A | 0.28 |
| A13G C17A U25C U41C U54A A56U A65C | 0.04 |
| A13G A28G A47G U60A | 0.36 |
| C12G U54A U78C | 0.36 |
| A13G A15U U31C C38U | 0.26 |
| A13G C14U A20G U26C G42U A75G | 0.12 |
| A13G A15U U41A U48C | 0.06 |
| C12U G24C U49C A57G U72C A77G | 0.04 |
| C12U U43A A56G | 1.13 |
| A13G A15U U54C U80C | 0.63 |
| A13G C23A A45G U48C U72A | 0.05 |
| A13G C14U A20G U26A C37U | 0.23 |
| A13C G19U A20U U26C U78C U80A | 0.06 |
| C12U U25C U41A U43C | 0.25 |
| A13G G16A U25C G70U | 0.29 |
| A13G A35G U41C A45U | 0.35 |

| Variant | self-cleavage |
| --- | --- |
| A13C G24A C34U U69C U78C | 0.19 |
| A13G A15G A18G U49C U60A | 0.15 |
| A13G A47G A56G A65G U80C | 0.05 |
| C12U A21G U51A U66C U67C | 0.33 |
| A13G C27U A28C C62A | 0.11 |
| C12U A15U U54A U74C | 1.24 |
| C12A U25C A45G U48C A64U | 0.11 |
| C12U A13C U51A A56U A65G U78G | 0.58 |
| C12U A21G U54C | 1.06 |
| C12U A18U A28G A47C U48A U51A | 0.11 |
| A13C C14U U25C U48C U67C | 0.1 |
| A13G A15U U25C C29U G46A | 0.07 |
| A13C A21G C27U A35G U54A C59A U67C | 0.08 |
| C12A C62G G73A U76C | 0.3 |
| C12U A13U A21G U26C A56U A57G U67C | 0.05 |
| A13G A18U A45U A64U | 0.11 |
| A13G A21G A28U C39A A45U A56G A65U | 0.06 |
| A13C A18G G53C G61C | 0.26 |
| C12U A15U U67A | 0.56 |
| C12U G19U A28G U72C | 0.29 |
| C12U A18G G30A A47U U48G U72A | 0.04 |
| C12G A18U U26A | 0.1 |
| A13G A18G A57U U72C | 0.11 |
| C12A C23A U26C U43C A45G U54C | 0.08 |

| Variant | self-cleavage |
| --- | --- |
| C12U U41A U51A U54C U60A U72C | 0.19 |
| C12U A21G A56G U72C | 0.75 |
| A13G A18C U51A G53A A65U | 0.15 |
| A13G C39U U54A U60G U76C | 0.16 |
| C12U A18G A28G U31C A45G C59A | 0.26 |
| A13G A28U A35U U80C | 0.33 |
| C12U U43C U76A | 0.82 |
| A13C A56U A77U | 0.46 |
| A13C A15G U31C U51A | 0.3 |
| C12U A15G U31C U48C | 0.09 |
| A13G A18G A28G A64U | 0.23 |
| A13G A15C A45U U51G A64G | 0.29 |
| A13C U31C A56G | 0.26 |
| A13C A15U A28G U41G A56U A64G U80C | 0.08 |
| A13G C27U A56C | 0.14 |
| A13G C17G U26A G30A U43C | 0.21 |
| A13C A15U C29A U41C U66C U69C A77G | 0.09 |
| A13G C23G U51A U67C U74C | 0.07 |
| A13G A15U C17U U41C G46U | 0.25 |
| C12A G33A U41A | 0.12 |
| A13C A21G A45U U49A C62U | 0.22 |
| A13C G19A G30A A45G A57G U60C | 0.07 |
| A13G A21G C34A C71U U72G | 0.07 |
| A13G A18U U25C U72A | 0.22 |

| Variant | self-cleavage |
| --- | --- |
| C12A C14A U41A C59A A75U | 0.18 |
| A13G A18G U41C | 0.29 |
| A13C G30A U43C | 0.4 |
| A13G C40U U49A U78C | 0.18 |
| A13G C32U A45G A65G U66C | 0.21 |
| A13C A18G A35G A45U U54C U76A | 0.55 |
| C12U A15G C81U | 0.94 |
| A13G A15G A56U U80C | 0.51 |
| A13G A20G A28U G53U U69C U74A | 0.26 |
| A13G A18U G19C U60C U67C | 0.12 |
| A13G A15C G33A U41C A56U U72C | 0.05 |
| A13G A45G U49C | 0.15 |
| A13G A20G C44A | 0.09 |
| C12G A28G A57G U58C U74A | 0.16 |
| A13G C40U U43C G46C U58C | 0.07 |
| A13G A15U G30A A35G | 0.23 |
| C12U A15C A18U A20U A64G A75G U80C | 0.07 |
| A13C A15U A20U | 0.3 |
| A13G A57G G63A | 0.41 |
| A13G A15U A45G C59U U78C | 0.24 |
| A13G A35G C40U U60C A65G U69C | 0.1 |
| C12A U54C C79A | 1.22 |
| C12U A18G U26C A28U A57G U74C U80G | 0.05 |
